Measured values taken from the supplement of paper PMC4967469.
By IC50 is meant the dose at which the fit gives 50% viability; fits outside the tested doses are given as limits. AUC sums up the same curve from the lowest dose to the 256-fold higher top dose; it is 1 without any effect and falls as sensitivity rises. For some of these results: The top dose, if marked as inferred, is not printed in the source and was worked back from the curve model. For some of these results: Drugs with an entry number were screened twice under separate entries, and the two screens often disagree.

Columns and labels:
Assay in all cases: Viability of human cancer cell lines after 72 h of drug (GDSC screen)
[1] = compound: NC(=O)Nc1sc(-c2ccc(F)cc2)cc1C(N)=O [TPCA-1]; details: top dose 20 µM
Procedure: (§1)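 Human cancer cell lines in 384-well plates, medium with 10% serum, drug for 72 h over a 256-fold dose range (nine 2-fold or five 4-fold steps up to the top dose). Adherent lines were fixed and stained with the nucleic acid dye Syto60, suspension lines read with resazurin; signal relative to control wells, capped at 0 and 100%. One two-parameter sigmoid per drug and line, fitted in a mixed model over all curves with the slope shared within a line.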

[2] = compound: C/C(=C\c1csc(C)n1)[C@@H]1C[C@@H]2O[C@]2(C)CCC[C@H](C)[C@H](O)[C@@H](C)C(=O)C(C)(C)[C@@H](O)CC(=O)O1 [Epothilone B]; details: top dose 0.032 µM; top dose inferred
Procedure: as §1

[3] = compound: CC(C)CC(=O)Nc1n[nH]c2c1CN(C(=O)C1CCN(C)CC1)C2(C)C [PHA-793887]; details: top dose 10.24 µM
Procedure: as §1

[4] = compound: C[C@@H](N)c1ccc(C(=O)Nc2ccnc3[nH]ccc23)cc1 [Y-39983]; details: top dose 20 µM; top dose inferred
Procedure: as §1

[5] = compound: CN1CCN(CCOc2cc(OC3CCOCC3)c3c(Nc4c(Cl)ccc5c4OCO5)ncnc3c2)CC1 [AZD-0530]; details: top dose 2 µM
Procedure: as §1

[6] = compound: CCCS(=O)(=O)Nc1ccc(F)c(C(=O)c2c[nH]c3ncc(Cl)cc23)c1F [PLX4720]; details: top dose 10 µM
Procedure: as §1

[7] = compound: CCc1nc(N)nc(N)c1-c1ccc(Cl)cc1 [Pyrimethamine]; details: top dose 20 µM; top dose inferred
Procedure: as §1

[8] = screen: GDSC drug entry 1371, top dose inferred

Cell Line	AUC [1]	IC50 [1] [µM]	AUC [2]	IC50 [2] [µM]	AUC [3]	IC50 [3] [µM]	AUC [4]	IC50 [4] [µM]	AUC [5]	IC50 [5] [µM]	AUC ([6]; screen: GDSC drug entry 1036)	IC50 ([6]; screen: GDSC drug entry 1036) [µM]	AUC [6, 8]	IC50 [6, 8] [µM]	AUC [7]	IC50 [7] [µM]
A704 (kidney, adherent)	0.873	18.2	0.684	0.00641	0.989	> 10.2	0.904	> 20	0.801	0.942	0.935	> 10	0.963	> 10		
ECC12 (stomach, suspension)															0.611	2.73
EHEB (lymphoid neoplasm, suspension)			0.805	0.0258					0.923	> 2	0.938	> 10	0.931	> 10		
EoL-1-cell (haematopoietic neoplasm, suspension)	0.344	0.488	0.636	0.00452	0.618	1.3	0.484	1.14	0.898	1.99	0.804	4.32	0.828	5.21		
HCE-4 (oesophagus, adherent)	0.989	> 20	0.476	0.00174	0.992	> 10.2	0.988	> 20	0.975	> 2						
HEL (acute myeloid leukaemia, semi-adherent)	0.426	0.811	0.597	0.00351	0.761	3.08	0.966	> 20	0.992	> 2			0.991	> 10		
IA-LM (large cell lung carcinoma, adherent)	0.95	> 20	0.32	0.000588	0.826	7.25	0.971	> 20	0.985	> 2	0.913	> 10	0.931	> 10		
JSC-1 (B-cell lymphoma, suspension)	0.354	0.495	0.573	0.00316	0.353	0.251	0.742	6.11	0.977	> 2	0.952	> 10	0.962	> 10		
K-562 (chronic myeloid leukaemia, suspension)									0.852	1.47						
KARPAS-620 (haematopoietic neoplasm, suspension)	0.609	2.38	0.492	0.00191	0.474	0.548	0.824	9.73	0.991	> 2	0.991	> 10	0.99	> 10		
KLE (endometrium, adherent)	0.789	15	0.836	> 0.032	0.923	> 10.2	0.935	> 20	0.887	> 2	0.961	> 10	0.934	> 10		
KOPN-8 (B-cell leukaemia, suspension)	0.555	1.73	0.702	0.00671	0.296	0.188	0.923	> 20	0.969	> 2	0.977	> 10	0.983	> 10		
KP-N-RT-BM-1 (neuroblastoma, semi-adherent)									0.961	> 2						
SCC-15 (head and neck, adherent)	0.866	> 20	0.666	0.00681	0.91	> 10.2	0.965	> 20	0.978	> 2	0.923	> 10	0.911	> 10		
SNU-C2B (large intestine, adherent)	0.926	> 20	0.627	0.00501	0.735	3.79	0.911	> 20	0.883	> 2	0.972	> 10	0.97	> 10		
TCCSUP (bladder, adherent)	0.952	> 20	0.613	0.00428	0.985	> 10.2	0.957	> 20			0.934	> 10	0.944	> 10		
TGBC11TKB (stomach, adherent)	0.978	> 20	0.661	0.00527	0.99	> 10.2	0.992	> 20			0.988	> 10	0.982	> 10		
TGBC24TKB (biliary tract, adherent)	0.925	> 20	0.58	0.00327	0.989	> 10.2	0.975	> 20	0.834	1.19			0.989	> 10		
THP-1 (acute myeloid leukaemia, suspension)	0.793	8.16	0.854	0.0213	0.74	2.86	0.913	> 20			0.976	> 10	0.981	> 10		
TMK-1 (stomach, adherent)	0.881	> 20	0.546	0.0027	0.863	9.72	0.972	> 20			0.986	> 10	0.984	> 10		
TOV-21G (ovary, adherent)	0.934	> 20	0.979	> 0.032	0.967	> 10.2	0.973	> 20			0.785	4.68	0.904	> 10		
TOV-112D (ovary, adherent)	0.69	4.27	0.325	0.000646	0.664	1.84	0.896	> 20			0.96	> 10	0.939	> 10		

Cell Line	AUC [1]	IC50 [1] [µM]	AUC [2]	IC50 [2] [µM]	AUC [3]	IC50 [3] [µM]	AUC [4]	IC50 [4] [µM]	AUC [5]	IC50 [5] [µM]	AUC ([6]; screen: GDSC drug entry 1036)	IC50 ([6]; screen: GDSC drug entry 1036) [µM]	AUC [6, 8]	IC50 [6, 8] [µM]	AUC [7]	IC50 [7] [µM]
TT2609-C02 (thyroid, adherent)	0.876	> 20	0.271	0.000425	0.849	8.46	0.971	> 20			0.877	> 10	0.909	> 10		
TT (thyroid, adherent)	0.96	> 20	0.979	> 0.032	0.947	> 10.2	0.982	> 20			0.956	> 10	0.98	> 10		
TYK-nu (ovary, adherent)	0.967	> 20	0.87	> 0.032	0.979	> 10.2	0.975	> 20			0.863	9.68	0.904	> 10		
U031 (kidney, adherent)	0.823	12.4	0.583	0.00341	0.925	> 10.2	0.889	> 20			0.915	> 10	0.972	> 10		
U251 (glioma, adherent)	0.882	19.5	0.753	0.0103	0.608	1.25	0.778	7.71					0.951	> 10		
U-2-OS (osteosarcoma, adherent)	0.978	> 20	0.981	> 0.032	0.982	> 10.2	0.971	> 20					0.984	> 10		
U-118-MG (glioma, adherent)	0.952	> 20	0.799	0.0182	0.986	> 10.2	0.986	> 20			0.986	> 10	0.977	> 10		
UACC-62 (melanoma, adherent)	0.987	> 20	0.928	> 0.032	0.979	> 10.2	0.988	> 20			0.981	> 10	0.506	0.65		
UACC-893 (breast, adherent)	0.928	> 20	0.847	> 0.032	0.913	> 10.2	0.972	> 20			0.979	> 10	0.966	> 10		
UM-UC-3 (bladder, adherent)	0.83	11.5	0.487	0.00184	0.795	4.44	0.932	> 20					0.955	> 10		
UMC-11 (lung carcinoid, adherent)	0.9	> 20	0.926	> 0.032	0.909	> 10.2	0.892	19.2					0.986	> 10		
VM-CUB-1 (bladder, adherent)	0.969	> 20	0.56	0.0029	0.982	> 10.2	0.986	> 20			0.944	> 10				
VMRC-MELG (melanoma, adherent)	0.955	> 20	0.972	> 0.032	0.987	> 10.2	0.987	> 20					0.982	> 10		
VMRC-RCZ (kidney, adherent)	0.875	> 20	0.266	0.00038	0.924	> 10.2	0.844	18			0.981	> 10	0.977	> 10		
WM35 (melanoma, adherent)	0.602	2.39	0.486	0.00184	0.742	3.17	0.926	> 20			0.983	> 10	0.505	0.646		
WM278 (melanoma, adherent)	0.677	4.19	0.814	0.0202	0.984	> 10.2	0.945	> 20					0.856	9.71		
WM793B (melanoma, adherent)	0.946	> 20	0.423	0.0012	0.769	4.26	0.94	> 20			0.868	> 10	0.925	> 10		
WM1552C (melanoma, adherent)	0.983	> 20	0.534	0.00248	0.906	> 10.2	0.849	15.1			0.814	5.49	0.951	> 10		
WM-115 (melanoma, adherent)	0.83	16.6	0.969	> 0.032	0.76	4.38	0.975	> 20			0.552	0.897	0.878	> 10		
YAPC (pancreas, adherent)	0.893	> 20	0.957	> 0.032	0.931	> 10.2	0.967	> 20			0.974	> 10	0.954	> 10		
YKG-1 (glioma, adherent)	0.93	> 20	0.452	0.00148	0.661	1.8	0.914	> 20			0.858	8.42	0.985	> 10		
huH-1 (liver, adherent)	0.984	> 20	0.813	0.0226	0.984	> 10.2	0.984	> 20			0.935	> 10	0.961	> 10		
